Results published in PubChem BioAssay AID488969 (Vanderbilt High Throughput Screening Facility, 2010).
In all, about 110,000 compounds were measured (“z-score”: median about -0.1, highest 2% from about 2 on). This is one part of the list. Activity calls are given as the source filed them.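 The calls were made as follows: active = z-score in the third read window above 3 or below -3; inactive = the rest.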

Biological target: Metabotropic glutamate receptor 8 (Rattus norvegicus) (UniProt P70579)
Experiment: rat mGluR8 modulators via GIRK flux, primary screen, cell-based, thallium flux, HTS (AID 488969)
Details: HEK293 rat mGluR8, GIRK (G protein-gated inwardly rectifying potassium channel) thallium flux, FluoZin2; at 10 µM; stronger effect = higher value; submaximal glutamate (EC20) added with thallium

UniProt P70579, sequence (P70579 whole entry, looked up): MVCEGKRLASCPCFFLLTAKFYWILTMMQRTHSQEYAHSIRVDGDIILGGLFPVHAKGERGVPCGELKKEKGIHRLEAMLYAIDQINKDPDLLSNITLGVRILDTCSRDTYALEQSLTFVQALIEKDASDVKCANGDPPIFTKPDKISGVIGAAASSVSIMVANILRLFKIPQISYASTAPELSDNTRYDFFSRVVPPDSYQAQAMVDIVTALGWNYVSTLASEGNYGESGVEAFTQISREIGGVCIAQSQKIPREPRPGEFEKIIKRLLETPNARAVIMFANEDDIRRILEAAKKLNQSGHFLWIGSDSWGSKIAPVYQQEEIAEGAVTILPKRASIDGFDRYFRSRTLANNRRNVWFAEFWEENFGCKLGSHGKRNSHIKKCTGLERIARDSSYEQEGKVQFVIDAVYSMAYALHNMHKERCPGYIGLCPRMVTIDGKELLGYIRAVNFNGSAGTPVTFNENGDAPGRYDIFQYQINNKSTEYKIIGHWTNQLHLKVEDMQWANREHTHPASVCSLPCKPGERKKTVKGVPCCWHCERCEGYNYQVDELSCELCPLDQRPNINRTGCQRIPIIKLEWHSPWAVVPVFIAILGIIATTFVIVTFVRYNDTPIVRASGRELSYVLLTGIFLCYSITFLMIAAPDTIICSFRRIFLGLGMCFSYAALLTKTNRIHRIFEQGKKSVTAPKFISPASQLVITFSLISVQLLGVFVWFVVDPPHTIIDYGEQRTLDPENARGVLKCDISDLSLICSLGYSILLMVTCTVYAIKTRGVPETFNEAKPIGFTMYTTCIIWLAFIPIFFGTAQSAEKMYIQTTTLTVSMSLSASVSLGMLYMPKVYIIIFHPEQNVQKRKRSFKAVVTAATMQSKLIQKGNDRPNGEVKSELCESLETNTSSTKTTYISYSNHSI

SMILES	z-score
Cc1sc(NC(=O)C2CCCCC2C(=O)O)c(C(N)=O)c1-c1ccccc1 (stereo not given)	-0.169
COCCn1cnc2c1c(=O)n(CC(=O)OCC(=O)NCC(F)(F)F)c(=O)n2Cc1ccccc1	-0.0742
Cc1cccc(-n2c(O)c(C=NC3CCS(=O)(=O)C3)c3ccccc3c2=O)c1 (stereo not given)	0.139
COc1ccc(CC(=O)NCCN2CCCC2)cc1	-0.117
COc1cc(OC)cc(C(=O)Nc2ccccc2N2CCOCC2)c1	-1.56
NNC(=O)CN1C(c2ccc(Cl)cc2)=Nc2ccc(Br)cc2C1c1ccccc1 (stereo not given)	-0.965
Cc1ccccc1OC(=O)C1C(c2ccccc2)C(C(=O)O)C1c1ccccc1 (stereo not given)	0.107
CCOC(=O)CC1=C(C(=O)OCC)C(c2cccs2)C(C#N)=C(N)O1 (stereo not given)	active: 3.6
COc1ccc(CCNC(=O)COC(=O)c2ccc(Br)o2)cc1OC	0.125
CC(C)CC1=NN(C(=O)c2cccnc2)C(O)(C(F)(F)F)C1 (stereo not given)	-0.281
O=C(O)CSCC(=O)NCc1ccccc1	-0.247
COc1ccc(NC(C)C(=O)Nc2ccc(C#N)cc2)cc1Cl (stereo not given)	-0.144
COc1ccc(CCNC(=O)c2nn(C)cc2Cl)cc1	0.0878
CC(C)(CNC(=O)/C=C/c1ccc(F)cc1)CNC(=O)/C=C/c1ccc(F)cc1	-0.186
COC(=O)c1cn(NC(=O)c2cc(OC)c(OC)c(OC)c2)c(=O)c2ccccc12	-0.119
O=c1c2ccccc2nc(N2CCN(c3ccccc3)CC2)n1Cc1ccccc1	-0.556
CCC(C)NC(=O)C1(C)CCC(=O)N1Cc1ccccc1OC (stereo not given)	-0.203
Cc1nn(-c2ccccc2)c2nc(=O)n(-c3ccccc3)cc12	0.382
COc1cc(SC)ccc1C(=O)Nc1ccc2c(c1)OCCO2	-0.616
CCN(CC)S(=O)(=O)c1ccc(NC2CCCc3ccccc32)nc1 (stereo not given)	-0.0653
c1ccc(-n2ncc3c(NCc4ccccn4)ncnc32)cc1	-0.201
Cc1ccc2cc(CN(C(=O)c3ccco3)c3ccccc3)c(=O)[nH]c2c1	-0.656

SMILES	z-score
COc1ccc(OC)c(NC(=O)Cn2c(-c3ccc(Cl)cc3)noc2=O)c1	0.687
Cc1ccc(CNC(C)c2ccccc2)cc1 (stereo not given)	0.00558
COc1cccc2cc(C(C)=O)c(=O)oc12	-0.157
COC(=O)c1ccccc1N(C)C(=O)C12CCC(C)(C(=O)O1)C2(C)C (stereo not given)	-0.42
CC(=O)NN1C(=O)/C(=C\c2ccccc2)SC1=S	-0.137
Cc1ccc(-c2c(C#N)c(N)nc3c2CCCC3)s1	-0.0781
CCC(Sc1nncn1C)C(=O)Nc1nnc(-c2ccccc2Cl)s1 (stereo not given)	0.118
O=C(NCc1cccnc1)c1ccc(Cl)cc1[N+](=O)[O-]	-0.16
Nn1c(SCC(=O)NC2CCCc3ccccc32)nnc1-c1ccc(Cl)cc1Cl (stereo not given)	-0.15
CCn1c(SCC(=O)Nc2nc(C)cs2)nnc1C(NC(=O)c1ccccc1Cl)C(C)C (stereo not given)	0.0315
Cc1ccc(C(=O)Nc2ccccc2C(=O)N2CCCC2)cc1[N+](=O)[O-]	0.0381
COC(=O)Nc1ccc(S(=O)(=O)N2CCC(Cc3ccccc3)CC2)cc1	-0.0675
COc1ccc(Nc2nc(Nc3ccc(OC)cc3)nc(SC3=NCCS3)n2)cc1	-1.2
CCC1=NN(C(=O)Cc2ccc([N+](=O)[O-])cc2)C(O)(c2ccc(Br)cc2)C1 (stereo not given)	-0.206
COc1cccc(C(=O)Nc2ncc3c(n2)CC(c2ccc(OC)cc2OC)CC3=O)c1 (stereo not given)	-1.19
O=C(N/N=C\c1ccc(-c2ccccc2[N+](=O)[O-])o1)C1COc2ccccc2O1 (stereo not given)	-0.225
Cc1cc(C)nc(SCC(=O)OCC(=O)Nc2nc3ccccc3s2)n1	-0.0902
O=C(Nc1cccc2ccccc12)NC1CCCc2ccccc21 (stereo not given)	-0.225
CC(=O)c1c(C)[nH]c(C(=O)COC(=O)c2cc(S(=O)(=O)N(C)c3ccccc3)ccc2Cl)c1C	-0.243
CN(c1ccc(S(=O)(=O)N2CCOCC2)cn1)C1CCCCC1	0.185
O=C(NC1CCCCC1)c1cc([N+](=O)[O-])[nH]n1	0.0144
COc1ccc(-c2cc(C(=O)O)[nH]n2)cc1OC	0.115

SMILES	z-score
COc1cc(NC(=O)C2CCCCC2)c(OC)cc1NC(=O)CCC(=O)NCc1ccco1	-0.237
CN(C)c1ccc(NC(=O)c2ccc(COc3cccc(Cl)c3)o2)cc1	-0.611
O=C(/C=C/c1cccc([N+](=O)[O-])c1)c1ccc2c(c1)OCCO2	-0.246
COC(=O)c1nc(NC(=O)C(C)(C)C)n[nH]1	0.11
Cc1cccc(C(C)C)c1NC(=O)CN(C)Cc1cccc(F)c1	-0.417
COc1cc(C=O)ccc1OS(=O)(=O)c1ccc(NC(C)=O)cc1	-0.4
COc1ccc(Cl)c(Cn2c(NCCCO)nc3c2c(=O)n(C)c(=O)n3C)c1	-0.642
Cn1c(C(=O)N2CCN(c3nc4ccccc4s3)CC2)cc2sccc21	-0.631
CCOc1ccccc1NC(=O)c1ccccc1N(C)S(C)(=O)=O	-0.366
O=C(Nc1cccnc1)C1OCCc2ccccc21 (stereo not given)	-0.355
Cc1ccc(-c2cc(-c3nnc(SCC(=O)NC(C)C(C)C)n3N)c3ccccc3n2)cc1 (stereo not given)	-0.304
O=C(c1ccc(Br)o1)N1CCN=C1SCc1cccnc1	0.392
O=C(COc1ccc(S(=O)(=O)N2CCOCC2)cc1)Nc1ccc2c(c1)OCCO2	-0.135
CN1CCN(c2ccc([N+](=O)[O-])c(Sc3nc4ccccc4[nH]3)c2)CC1	-0.352
Cc1ccc(NC(=S)c2nc3ccccc3[nH]2)cc1	-1.02
CCS(=O)(=O)c1ccc2c(c1)N(S(=O)(=O)c1ccccc1)CC(C(=O)O)O2 (stereo not given)	0.0848
O=C(Nc1ccccc1[N+](=O)[O-])c1cccnc1Cl	-0.142
CC(C)(C)c1nnc2sc(SCC(=O)c3ccccc3)nn2c1=O	-0.682
COC(=O)c1cc(OC)c(OC)cc1NC(=O)CCCCCN1C(=O)CCC1=O	-0.144
C=C(C)Cc1c(C)c(C#N)c2nc3ccccc3n2c1N1CCCCC1	-0.411
CCC(C)NC(=O)C(=O)NCc1ccncc1 (stereo not given)	0.186
CC(=O)COc1ncn(-c2ccccc2)n1	0.552

SMILES	z-score
COc1ccc(C(=O)C(CO)Oc2ccccc2OC)cc1OC (stereo not given)	0.324
COc1ccc(/C=N/NC(=O)c2nonc2C)cc1	0.0688
Cc1nc2cc(-n3ccc(=O)cc3)ccc2n1-c1ccccc1	-0.177
CC(C)(C)NS(=O)(=O)c1ccc(CCC(=O)N2CCCCC2)cc1	-0.00207
Cc1csc(NC(=O)c2nc3nc(C)cc(C)n3n2)n1	-0.682
Cc1ccc(NC(=O)CCn2nc(C)cc2C)cc1	-0.0783
COc1cccc(NC(=O)COc2nc3ccccc3nc2C)c1	-0.172
CCCCNS(=O)(=O)c1ccc2nc(SCC(=O)c3ccccc3OC)[nH]c2c1	-0.325
Cc1ccc(NC(=O)CN2CCN(CCN=CC3=C(O)CC(C)(C)CC3=O)CC2)cc1	-0.885
Clc1ccc(Cc2nn3c(-c4ccncc4)nnc3s2)cc1	-0.204
CCCCCCC(=O)Nc1nc(C)c(-c2csc(Nc3ccc(Cl)cc3)n2)s1	-0.287
Cc1cc(C)c(C)c(OCCCCn2cnc3ccccc3c2=O)c1	-0.2
O=C1CCc2cc(S(=O)(=O)N3CCN(c4cccc(Cl)c4)CC3)ccc2N1	0.66
CC1Cc2ccccc2N1CC(=O)Nc1ccc2c(c1)OC(F)(F)O2 (stereo not given)	-0.294
O=S(=O)(c1cccc(Cl)c1)N1CCCC1	-0.173
O=C(CSCC(=O)NC1CCCC1)Nc1ccccc1	-0.362
COc1cccc(Cn2c(N)c(C#N)c3nc4ccccc4nc32)c1OC	0.791
CCCOc1ccccc1NC(=O)c1c(-c2ccccc2)noc1C	-0.547
O=C(NCC1CCCO1)c1ccc2c(=O)n(CCc3ccccc3)c(=O)[nH]c2c1 (stereo not given)	0.355
CCCS(=O)(=O)Nc1c(C(=O)O)[nH]c2ccccc12	-0.0853
Cc1onc(-c2ccccc2)c1-c1n[nH]c(=S)n1-c1ccccc1	-0.237
COc1ccc(OC)c(C2C3=C(CCCC3=O)NC3=C2C(=O)CCC3)c1	-0.586

SMILES	z-score
CCCCSc1nc(N)c(NC(=O)c2ccco2)c(=O)[nH]1	active: 3.07
Cc1ccnn1CCSCC(=O)O	0.122
O=C(NCCc1ccccc1)C1(c2ccccc2)CC1(Cl)Cl (stereo not given)	0.132
CCOC(=O)C1=C(O)/C(=C/c2cn(CC(=O)N3CCCC3)c3ccccc23)SC1=Nc1ccccc1	-0.0166
COc1ccc(-c2nnc(SCC(=O)Nc3cc(S(=O)(=O)N4CCCCC4)ccc3Cl)n2N)cc1	-0.429
O=S(=O)(c1ccc2nc(SCc3ccc(Cl)cc3)[nH]c2c1)N1CCOCC1	-0.0233
O=C(CCn1cnc2ccccc2c1=O)Nc1nc2c(s1)CCCC2	-0.216
Cc1cccc2sc(NC(=O)CN(C)S(=O)(=O)c3cccs3)nc12	1.93
COc1ccc(OC)c(C(c2nnnn2C2CCCC2)N2CCc3ccccc3C2)c1 (stereo not given)	-0.479
CC(C)COc1ccc(C(=O)Nc2scc(-c3ccc(Cl)cc3Cl)c2C(N)=O)cc1	-0.183
COc1ccc(S(=O)(=O)N2CCCCC2)cc1Br	0.173
Cc1nn2c(N3CCN(C4CCCC4)CC3)cc(C(C)(C)C)nc2c1-c1ccccc1	0.26
CC(=O)Nc1cc2c(cc1NC(=O)Cn1nc(-c3ccc4c(c3)OCCO4)ccc1=O)OCCO2	-0.275
CC(=O)c1cccc(NC(=O)C(OC(=O)c2cccs2)c2ccccc2)c1 (stereo not given)	-0.333
CC(C)(C)NC(=O)NC(=O)COC(=O)Cc1coc2ccc3ccccc3c12	0.0031
CC(=O)c1c(N2CCN(Cc3ccccc3)CC2)nc(=S)n(Cc2ccccc2)c1C	-0.0789
COc1cc(C(=O)OC(C)CN2CCOCC2)cc(OC)c1OC (stereo not given)	-0.172
CC(=O)Nc1cc(Cl)ccc1OS(=O)(=O)c1ccc(C)cc1	-0.12
O=C(CSCc1ccc(Cl)cc1)N/N=C/c1ccccc1	-0.128
CCOc1ccc(C(F)(F)F)cc1NC(=O)COc1ccc(C(F)(F)F)cc1[N+](=O)[O-]	-0.107
Cc1ccccc1N1CCN(Cc2cccc(C(=O)O)c2)CC1	0.536
O=C(CC(c1ccccc1)c1ccccc1)NCc1cccnc1	0.00676
